In all, about 310,000 compounds went through this assay and about 14,000 (4.5%) showed an effect of 50% or more. Effects have a minus sign here. This is one part of the list.
These compounds were tested against human ether-à-go-go-related gene (hERG) potassium channel (human, UniProt Q12809) (assay: primary screen, population patch clamp on CHO cells stably expressing hERG).
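Also: peak tail current of the secondary pulse compared with the same well before compound.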

human ether-à-go-go-related gene (hERG) potassium channel, sequence (Q12809 whole entry, looked up): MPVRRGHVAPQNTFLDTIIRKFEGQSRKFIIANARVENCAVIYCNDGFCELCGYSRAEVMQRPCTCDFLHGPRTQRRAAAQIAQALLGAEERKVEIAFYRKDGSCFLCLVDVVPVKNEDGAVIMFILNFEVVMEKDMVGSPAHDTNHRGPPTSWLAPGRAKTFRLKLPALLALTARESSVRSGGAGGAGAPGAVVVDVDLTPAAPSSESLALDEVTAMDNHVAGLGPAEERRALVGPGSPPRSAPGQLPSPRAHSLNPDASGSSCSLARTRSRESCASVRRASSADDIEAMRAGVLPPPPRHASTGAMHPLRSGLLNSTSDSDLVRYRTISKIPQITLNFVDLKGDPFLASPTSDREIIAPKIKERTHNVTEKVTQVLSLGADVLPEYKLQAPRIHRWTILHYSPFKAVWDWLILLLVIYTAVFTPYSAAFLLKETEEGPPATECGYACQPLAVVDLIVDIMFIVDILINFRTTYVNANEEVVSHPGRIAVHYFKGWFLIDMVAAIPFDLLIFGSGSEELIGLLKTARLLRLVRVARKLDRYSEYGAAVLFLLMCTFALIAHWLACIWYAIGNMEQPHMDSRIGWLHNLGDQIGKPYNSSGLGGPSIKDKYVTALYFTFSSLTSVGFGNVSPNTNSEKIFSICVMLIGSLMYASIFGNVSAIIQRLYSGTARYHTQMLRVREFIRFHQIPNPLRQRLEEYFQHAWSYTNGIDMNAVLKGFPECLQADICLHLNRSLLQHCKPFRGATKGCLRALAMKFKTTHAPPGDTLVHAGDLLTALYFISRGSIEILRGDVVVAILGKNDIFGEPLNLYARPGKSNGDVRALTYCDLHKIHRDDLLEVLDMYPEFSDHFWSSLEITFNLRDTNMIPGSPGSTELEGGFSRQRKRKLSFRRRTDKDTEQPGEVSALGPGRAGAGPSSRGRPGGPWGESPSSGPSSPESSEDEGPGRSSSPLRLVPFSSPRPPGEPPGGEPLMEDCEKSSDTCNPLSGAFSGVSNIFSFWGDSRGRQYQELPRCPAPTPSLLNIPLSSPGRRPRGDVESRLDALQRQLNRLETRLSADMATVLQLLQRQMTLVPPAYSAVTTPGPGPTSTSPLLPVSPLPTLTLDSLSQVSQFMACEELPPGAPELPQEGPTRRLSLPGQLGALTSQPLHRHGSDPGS

| SMILES | hERG current change (%, negative = inhibition) at 10uM [%] |
| --- | --- |
| CC(NC(=O)c1cccc(S(=O)(=O)N2CCc3ccccc3C2)c1)c1ccco1 (stereo not drawn) | -19 |
| CCC(C)(C)NC(=O)c1cccc(NC(=O)C(C)C)c1 | 13.2 |
| O=C(CCn1c(=O)[nH]c2ccccc2c1=O)Nc1ccccc1 | 16.4 |
| CCOC(=O)N1CCN(C(=O)c2noc3c2COc2ccccc2-3)CC1 | -0.66 |
| Cc1ccc(NS(=O)(=O)c2ccc(-c3coc(C)n3)cc2)c(Br)c1 | 2.38 |
| O=C(NC1CCCCCC1)C1Cc2ccccc2CN1C(=O)c1ccco1 (stereo not drawn) | 6.53 |
| COc1ccc(NC(=O)CSc2nnnn2C)c([N+](=O)[O-])c1 | 7.1 |
| CCOC(=O)[C@@]12C(=O)C(=O)N[C@]1(c1ccccc1)C1OCCCC12 (stereo partly drawn) | -0.445 |
| COc1ccccc1/C=N/Nc1nncc2ccccc12 | 20.9 |
| Cc1c(C(=O)OCC2CCCO2)[nH]c2c1C(=O)CC(c1ccco1)C2 (stereo not drawn) | -10.7 |
| O=C(/C=C/c1ccco1)Nc1ccccc1C(=O)O | 16.3 |
| Cc1cc(=O)[nH]c(Nc2cccc(C(F)(F)F)c2)n1 | -8.82 |
| O=C(N/N=C/c1cc(Cl)cc([N+](=O)[O-])c1O)NC12CC3CC(CC(C3)C1)C2 | 11.8 |
| O=C(C1CC2CCC1C2)N1CCN(Cc2ccc3c(c2)OCO3)CC1 (stereo not drawn) | -12.9 |
| CCCCNC(=S)NNC(=O)c1nn(C)c(C)c1Cl | -0.401 |
| c1ccc(C2c3[nH]c4ccccc4c3CCN2Cc2cccn2-c2ccccn2)nc1 (stereo not drawn) | -70.5 |
| O=C(C1=C[C@H](c2ccc(C(F)(F)F)cc2)C[C@H](OCc2ccc(CO)cc2)O1)N1CCN(Cc2ccc3c(c2)OCO3)CC1 | -19.5 |
| O=C(Nc1ccc2nc(N3CCOCC3)sc2c1)c1ccccc1 | -5.32 |
| CCCC(=O)Nc1ccc(C(=O)NCC(=O)OCC)cc1 | 4.47 |
| O=C(CSCCOc1ccccc1)NCc1ccncc1 | -3.26 |
| CC(c1ccccc1)n1cc(C(=O)NCc2cccnc2)nn1 (stereo not drawn) | 5.69 |
| O=C(CN(C(=O)c1nsc(Cl)c1Cl)c1cccc(F)c1)NC1CCCC1 | 12.6 |
| CCOC(=O)c1cnc2ccc(Br)cc2c1NCCCN1CCOCC1 | -39 |

| SMILES | hERG current change (%, negative = inhibition) at 10uM [%] |
| --- | --- |
| CCCS(=O)(=O)N1CCCC(C(=O)NCCCN2CCN(c3ccc(F)cc3)CC2)C1 (stereo not drawn) | -59.5 |
| O=C1CCCN1S(=O)(=O)c1ccc(F)cc1 | 6.17 |
| Fc1ccc(CNC(=S)Nc2ccc(Cl)cc2Cl)cc1 | 2.76 |
| CCOc1cc(/C=N/NC(=O)CNc2ccc(C)cc2)ccc1OC(=O)c1ccccc1 | -9.04 |
| Cc1ccc(S(=O)(=O)n2c(=O)oc3ccccc32)cc1 | 0.156 |
| Cn1c(C(=O)N2CCCC(Nc3ccc(F)cc3)C2)cc2ccccc21 (stereo not drawn) | -10.2 |
| Cc1cc(C)c(S(=O)(=O)N(CC(=O)N2CCCC2)C2CCCCC2)c(C)c1 | -38.4 |
| Cc1cc(NC(=O)CSc2ccc3nnc(-c4ccccn4)n3n2)no1 | -6.72 |
| Cc1cc(C)n(S(=O)(=O)c2cc(C)c(C)cc2C)n1 | -5.5 |
| O=C(Nc1ccccn1)c1csc2c1CCCC2 | 9.1 |
| CC(C)(C)c1nc(N2CCN(C(=O)c3ccco3)CC2)c2nnn(Cc3ccccc3)c2n1 | 13.1 |
| COC(=O)C1(Cc2cc(-c3ccc([N+](=O)[O-])cc3)no2)CCN(C(=O)OC(C)(C)C)CC1 | -8.82 |
| O=C(O)CCn1c(SCc2ccccc2)nc2ccccc21 | -2.27 |
| CN(C)c1ccc(NC(=O)CSc2nc3c(c(=O)[nH]2)CCCC3)cc1 | -20.7 |
| CCc1ccc(Nc2c([N+](=O)[O-])c(=O)oc3ccccc23)cc1 | -2.5 |
| Cc1ccc(CSc2ncccc2C(=O)O)cc1 | 4.94 |
| CC(=O)Nc1cccc(NS(=O)(=O)c2cc3c4c(c2)CCN4C(=O)CC3)c1 | 4.78 |
| COCCNC(=O)/C(C#N)=C/c1cn(CC(=O)NCc2ccco2)c2ccccc12 | 3.53 |
| COc1cccc(CN2CC(C(=O)NCc3ncc(C)[nH]3)CCC2=O)c1 (stereo not drawn) | 23.3 |
| Fc1cccc(CSc2nc3ncccc3[nH]2)c1 | 4.28 |
| CC(=O)NCc1ccc(C(=O)CSc2nnc(C3CC3)n2C2CC2)cc1 | 12.6 |
| Cc1ccc2oc(=O)c3cnn(CC(=O)NCCCOC(C)C)c3c2c1 | -4.52 |
| O=C(O)c1cc(-c2ccco2)[nH]n1 | 2.2 |

| SMILES | hERG current change (%, negative = inhibition) at 10uM [%] |
| --- | --- |
| COc1ccc(CNC(=O)C2CCCN(S(=O)(=O)c3c(C)n[nH]c3C)C2)cc1 (stereo not drawn) | -9.61 |
| O=C(NC(Cc1ccccc1)C(=O)O)OCC1c2ccccc2-c2ccccc21 (stereo not drawn) | 7.84 |
| CCOc1ccccc1-c1noc(CCCC(=O)NC2CCCCC2)n1 | -5.35 |
| CCc1c(C)nc(SCC(=O)NC2CCCC2)[nH]c1=O | 27.7 |
| COC(CNS(=O)(=O)c1ccc(Cl)cc1)c1ccccc1 (stereo not drawn) | 2.11 |
| Cc1ccc(OCCn2c(=O)n(C)c3ccccc32)cc1 | -1.88 |
| CN(C)C(=O)c1cc2cc([N+](=O)[O-])ccc2s1 | -38.9 |
| CC(C)CC(=O)N1CCN(S(=O)(=O)c2ccc(Cl)cc2)CC1 | -13.4 |
| Cl.O=[N+]([O-])c1ccccc1OCCCN1CCc2ccccc2C1 | -49.7 |
| COC(=O)c1ccccc1NC(=O)CNC(=O)c1ccc(OC)cc1 | -14.7 |
| COc1ccc(/C=N/N=C2\SCC(=O)N2c2c(C)n(C)n(-c3ccccc3)c2=O)cc1OC | 35.2 |
| Cc1[nH]c(=O)[nH]c1C(=O)CCCCC(=O)OCC(=O)Nc1ccccn1 | 12.3 |
| Cc1ccc2nc(C)cc(C(=O)Nc3nccs3)c2c1 | -1.58 |
| Cc1cc(Oc2ccccc2)nc(-c2ccccc2O)n1 | -3.03 |
| CCCCN(C(=O)Cn1nnc2ccccc21)C(C(=O)NCc1ccco1)c1ccncc1 (stereo not drawn) | -11.7 |
| CCOc1ccc(NC(=O)CN2CCN(c3ccccc3C)CC2)cc1S(=O)(=O)N1CCCC1 | -11.1 |
| O=C(CNC(=O)c1ccccc1F)OCC(=O)c1ccc(Cl)s1 | 8 |
| COC(=O)C1=NN(c2ccc(C)cc2)C2(S1)SC(C(C)=O)=C(C)N2c1ccccc1 (stereo not drawn) | -10 |
| COC(=O)c1ccc(NC(=O)N2CCC(O)(c3cccnc3)CC2)cc1 | 9.11 |
| CCC1CCc2c(sc3nc(SCC(=O)NCc4ccco4)n(-c4ccccc4)c(=O)c23)C1 (stereo not drawn) | 11.2 |
| CCN1CCC(NC(=O)Nc2cccc(C(F)(F)F)c2)CC1 | -51.1 |
| O=C(CCn1nc(-c2ccc(Cl)cc2)ccc1=O)NCc1cccnc1 | -28.5 |
| COc1cccc(-c2nc(-c3ccncc3)no2)c1 | -27.6 |

| SMILES | hERG current change (%, negative = inhibition) at 10uM [%] |
| --- | --- |
| Cn1cnnc1SCC(=O)Nc1sc2c(c1C#N)CCCCC2 | -42 |
| O=C(Nc1cccc(C(=O)O)c1)Nc1cccc2ccccc12 | 23.3 |
| CN(C)C=Nc1nonc1N | -1.38 |
| O=CN1CCN(c2c([N+](=O)[O-])c(=O)oc3ccccc23)CC1 | -4.33 |
| CN1CCc2c(n(CC(O)CNCc3ccccc3)c3ccccc23)C1=O.Cl (stereo not drawn) | -52.8 |
| Cc1ccc(S(=O)(=O)NCc2ccco2)c(C)c1C | -4.4 |
| CCC(=O)N1CCc2cc(S(=O)(=O)NCCC(=O)Nc3ccccc3C)ccc21 | 0.186 |
| CCOC(=O)c1sc2nc(C)nc(NCCc3ccccn3)c2c1C | 27.6 |
| Cc1ccc(N=CC2=C(O)CC(c3ccccc3Cl)CC2=O)cc1 (stereo not drawn) | -6.91 |
| CS(=O)(=O)N(CCC#N)Cc1ccc(/C=C2\C(=O)Nc3ccccc32)o1 | 19 |
| Cc1ccc(NC(=O)CCC(=O)NNC(=O)c2cccs2)c(C)c1 | -7.48 |
| Cc1cc(=O)n2[nH]cc(C(=O)O)c2n1 | -7.6 |
| O=C(Nc1ccc(S(=O)(=O)N2C[C@@H]3C[C@@H](C2)c2cccc(=O)n2C3)cc1)c1ccc(F)cc1 | -2.39 |
| Cc1onc(-c2ccccc2)c1C(=O)N1CCN(CCc2ccccc2)CC1 | -8.08 |
| COc1cc(/C=N/n2nnnc2N)ccc1OCC(N)=O | 22.6 |
| Cc1[nH]c2ccccc2c1C(=O)C(=O)Nc1ccc2c(c1)OCCO2 | 7.07 |
| COc1cc(CCC(=O)Oc2ccc(C(C)=O)cc2)cc(OC)c1OC | -15.2 |
| Cc1ccc(-c2cnn(-c3cccc(C(F)(F)F)c3)c2N)cc1 | -3.62 |
| Brc1ccc(CN2CCN(Cc3c[nH]c4ccccc34)CC2)cc1.O=C(O)C(=O)O | -63.8 |
| CCCCC1C(=O)CC[C@H]2[C@@H]1CC(=O)[C@@H]2C/C=C\CCCC(=O)O (stereo partly drawn) | 10.1 |
| Cn1c(SCC(=O)NC(C)(C)C)nnc1-c1ccc(C(C)(C)C)cc1 | 4.2 |
